Experimental data: publication PMC4336329 (PLoS ONE, 2015)
Screen size: about 310,000 compounds; about 2,200 (0.71%) showed an effect of 50% or more. The effect is printed as a negative number. The list shows a part of the results.

Molecular target: human ether-à-go-go-related gene (hERG) potassium channel (human, UniProt Q12809)
Test: primary screen, population patch clamp on CHO cells stably expressing hERG

Chain of human ether-à-go-go-related gene (hERG) potassium channel (Q12809 whole entry, looked up): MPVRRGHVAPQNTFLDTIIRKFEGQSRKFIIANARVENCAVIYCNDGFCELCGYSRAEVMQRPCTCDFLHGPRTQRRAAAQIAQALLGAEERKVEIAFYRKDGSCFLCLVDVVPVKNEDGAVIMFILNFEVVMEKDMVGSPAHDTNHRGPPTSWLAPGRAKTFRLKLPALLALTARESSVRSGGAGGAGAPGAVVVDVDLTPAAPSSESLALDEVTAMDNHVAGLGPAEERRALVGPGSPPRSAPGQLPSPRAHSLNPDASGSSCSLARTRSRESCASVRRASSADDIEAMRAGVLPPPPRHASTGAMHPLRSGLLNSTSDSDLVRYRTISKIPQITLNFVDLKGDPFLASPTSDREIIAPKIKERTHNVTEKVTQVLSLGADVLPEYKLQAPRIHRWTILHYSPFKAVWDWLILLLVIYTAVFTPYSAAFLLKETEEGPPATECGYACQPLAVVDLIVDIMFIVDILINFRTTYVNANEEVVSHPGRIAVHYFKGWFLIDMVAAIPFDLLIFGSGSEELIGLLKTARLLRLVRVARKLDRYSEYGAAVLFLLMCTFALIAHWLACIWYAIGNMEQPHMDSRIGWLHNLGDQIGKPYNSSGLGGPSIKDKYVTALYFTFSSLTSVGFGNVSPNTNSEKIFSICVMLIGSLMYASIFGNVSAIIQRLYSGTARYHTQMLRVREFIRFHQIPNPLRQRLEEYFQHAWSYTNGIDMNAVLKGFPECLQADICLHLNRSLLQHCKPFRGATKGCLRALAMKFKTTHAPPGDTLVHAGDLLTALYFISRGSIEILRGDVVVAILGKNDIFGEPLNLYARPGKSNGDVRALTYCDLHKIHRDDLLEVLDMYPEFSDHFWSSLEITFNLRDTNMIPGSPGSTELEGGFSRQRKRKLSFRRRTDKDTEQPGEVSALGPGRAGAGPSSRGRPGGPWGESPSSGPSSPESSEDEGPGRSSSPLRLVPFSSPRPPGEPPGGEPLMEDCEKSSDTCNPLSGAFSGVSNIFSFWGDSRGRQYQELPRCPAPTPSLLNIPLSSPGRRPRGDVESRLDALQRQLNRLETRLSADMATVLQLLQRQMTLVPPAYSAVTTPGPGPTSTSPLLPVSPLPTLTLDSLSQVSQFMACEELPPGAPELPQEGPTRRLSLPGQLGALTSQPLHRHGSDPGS

Compared with `O=C(O)c1ccccc1Nc1ccccc1`, `N#CCN(N=Nc1ccccc1)c1ccccc1` is higher in “hERG current change (%, negative = inhibition) at 1uM” value: 10.3% for the first, 15.4% for the second.

Compared with `Cc1ccc(S(=O)(=O)ON=C2CCN(S(=O)(=O)c3ccccc3)CC2)cc1`, `Cc1ccc(S(=O)(=O)NC(=O)N(CCC#N)Cc2ccccc2)cc1` is lower in “hERG current change (%, negative = inhibition) at 1uM” value: 20.5% for the first, 10.9% for the second.

First: Nc1nc(SCC(=O)NCc2ccc(F)cc2)[nH]c(=O)c1NC(=O)c1ccc(Cl)cc1
Second: Cn1cc(CC(=O)NCc2ccc(F)cc2)c2ccccc21
The “hERG current change (%, negative = inhibition) at 1uM” value of the first is lower: 1.88% for the first, 5.25% for the second.

First: Cc1ccnc2nc(C(=O)Nc3nnc(CC(C)C)s3)nn12
Second: COc1ccc(-c2nn(C)c3sc(C(=O)NCCN(C)C)cc23)cc1OC
The “hERG current change (%, negative = inhibition) at 1uM” value of the first is lower: 9.78% for the first, 22.4% for the second.

First: O=[N+]([O-])c1ccc(OCc2cnc(Cl)s2)c([N+](=O)[O-])c1
Second: Cc1ccc(S(=O)(=O)N(C)c2ccc(C)c([N+](=O)[O-])c2)cc1
The “hERG current change (%, negative = inhibition) at 1uM” value of the first is lower: -18.3% for the first, 6.74% for the second.

First: S=c1[nH]nc(-c2cc(-c3ccccc3)n[nH]2)n1/N=C/c1cccs1
Second: CCn1c(=NC(=O)COc2ccccc2)sc2cccc(F)c21
The “hERG current change (%, negative = inhibition) at 1uM” value of the first is higher: 10.2% for the first, 10% for the second.

Going from `Cc1ccc(N2CC(C(=O)N3CCC4(CC3)CC(=O)c3ccccc3O4)CC2=O)cc1C` (centres unmarked) to `O=C(c1ccc2c(c1)OCCO2)C1CCN(S(=O)(=O)c2cccc(F)c2)CC1`, the “hERG current change (%, negative = inhibition) at 1uM” value rises from -6.22% to -2.61%.

First: O=C1C2C(c3cccc(/C=C/c4ccccc4)c3)CC=CC2C(c2ccc(C(F)(F)F)cc2)N1Cc1ccccc1 (centres unmarked)
Second: N#C[C@@H]1N(Cc2ccccc2)C(=O)[C@H]2CC3C=CC21O3 (some centres unmarked)
The “hERG current change (%, negative = inhibition) at 1uM” value of the first is higher: 7.68% for the first, 3.66% for the second.

Going from `O=C(NCCCn1ccnc1)c1cc2nc(-c3ccc(Br)cc3)cc(C(F)(F)F)n2n1` to `O=C1Nc2ccccc2C(O)(C(=O)NCc2ccco2)N1c1ccc(Cl)c(Cl)c1` (centres unmarked), the “hERG current change (%, negative = inhibition) at 1uM” value rises from -6.23% to 8.48%.

First: COc1cccc(OCC(=O)NNC(=O)c2ccc3ccccc3c2)c1
Second: CCCN(CC(=O)Nc1ccccc1OC)C(=O)CCC(=O)c1ccc(F)cc1
The “hERG current change (%, negative = inhibition) at 1uM” value of the first is higher: 8.87% for the first, 1.81% for the second.

First: CCN(CC)c1ccc(/C=N/NC(=O)C2CC2)cc1
Second: Cc1ccc2c(c1)NCC(C(=O)NC1CCC(C)CC1)O2 (centres unmarked)
The “hERG current change (%, negative = inhibition) at 1uM” value of the first is lower: 5.61% for the first, 13.3% for the second.

Compared with `CCC(C)[C@H](NC(=O)Nc1cccc(OC)c1)C(=O)OC` (some centres unmarked), `COc1cc(NC(=O)CC2NCCNC2=O)cc(OC)c1` (centres unmarked) is higher in “hERG current change (%, negative = inhibition) at 1uM” value: 15.7% for the first, 20.3% for the second.

Compared with `Cc1ncoc1C(=O)N1CCCC(CCC(=O)NCc2ccc(F)c(F)c2)C1` (centres unmarked), `CCn1cc(C(=O)NC(C)C)c(=O)c2cc(F)c(N3CCN(C(=O)c4ccco4)CC3)cc21` is lower in “hERG current change (%, negative = inhibition) at 1uM” value: 4.81% for the first, -4.05% for the second.

First: COc1ccccc1/C=C/C(=O)NCc1ccccn1
Second: COc1cc(/C=C(/C#N)C(=O)NCc2ccccc2)cc(OC)c1OC
The “hERG current change (%, negative = inhibition) at 1uM” value of the first is higher: 10.3% for the first, 8.05% for the second.

Compared with `Cc1cccc(NC(=S)N(CCCN2CCOCC2)Cc2cn(C)c3ccccc23)c1`, `O=C(CCc1ccccc1)Nc1ccc(N2CCOCC2)c(Cl)c1` is lower in “hERG current change (%, negative = inhibition) at 1uM” value: 12.5% for the first, -3.69% for the second.

Compared with `CCCn1c(=O)[nH]c2ccccc21`, `CN(C(=O)CC(=O)Nc1ccc(Cl)c(Cl)c1)c1ccccc1` is lower in “hERG current change (%, negative = inhibition) at 1uM” value: 13.6% for the first, 3.44% for the second.

Compared with `COC(=O)CSc1ccnc2cc(Cl)ccc12`, `Cc1ccccc1NC(=O)Cc1nc(COC(=O)c2cc(Cl)ccc2O)cs1` is lower in “hERG current change (%, negative = inhibition) at 1uM” value: 14.2% for the first, 9.21% for the second.

Compared with `C/C(=N/NC(=O)CNC(=O)c1cccnc1)c1ccc([N+](=O)[O-])cc1`, `O=C(NC1CCN(Cc2cccc([N+](=O)[O-])c2)CC1)c1ccccc1` is lower in “hERG current change (%, negative = inhibition) at 1uM” value: 5.31% for the first, -3.19% for the second.

Compared with `COc1ccc(Cl)c(Cn2c(NCC(C)O)nc3c2c(=O)n(C)c(=O)n3C)c1` (centres unmarked), `CCOc1ccc2oc(C(=O)NCC(C)(C)CN(C)C)c(C)c2c1.Cl` is lower in “hERG current change (%, negative = inhibition) at 1uM” value: 11.5% for the first, -13% for the second.

Compared with `Oc1ccc(/C=N/Nc2cccc3cccnc23)c(O)c1`, `COc1cccc(OC)c1OCCN1CCN(C(=O)c2ccco2)CC1.Cl` is lower in “hERG current change (%, negative = inhibition) at 1uM” value: 8.82% for the first, 7.12% for the second.

Going from `COc1ccc(C)cc1S(=O)(=O)N1CCCCC1` to `O=C(NCCCN1CCCC1)c1ccc(CS(=O)(=O)c2ccc(Cl)cc2)o1`, the “hERG current change (%, negative = inhibition) at 1uM” value rises from 7.39% to 18.1%.

Going from `CCCNC(=O)N1[C@H]2CC[C@@H]1C(C(=O)OC)=C(c1ccc(Cl)c(C(F)(F)F)c1)C2` to `COc1cc(OC)cc(-c2sc3ccc(OC)cc3c2C#CCCO)c1`, the “hERG current change (%, negative = inhibition) at 1uM” value rises from 11.2% to 17.1%.
